# Measurements taken from the supplement of paper PMC9135407.
# “And” between values parts separate entries of the source, which are not always exact repeats. Equal values may be shown once. Where a name gives a salt, the structure may show the parent alone. The campaign covered roughly 5,800 compounds. About 620 (11%) showed activity.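 Rule for the calls: active = score above a cut-off or among the top three wells of a plate; in these data no inactive exceeds 0.85.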 This is a selection; strong and weak results do not stand in their true shares.
# Tested on: primary human hepatic stellate cells (donor 1)
# Assay: scaled lipid accumulation score (0 = DMSO-like, 1 = nortriptyline-like); higher = stronger HSC inactivation (lipid re-accumulation), active = hit call of the paper
# Settings: 48 h
# [1] = library stock concentration: 3.33 mM
# [2] = library stock concentration: 80 uM
# [3] = library stock concentration: 400 uM
# [4] = library stock concentration: 2 mM
# [5] = library stock concentration: 10 mM
compound,measurement,setting,value
N#CC(c1ccnc(NCCc2cccnc2)n1)c1nc2ccccc2s1 (stereo not drawn) [JNK Inhibitor V],scaled lipid accumulation score,[1],inactive: 0.329
N#CC(c1ccnc(NCCc2cccnc2)n1)c1nc2ccccc2s1 (stereo not drawn),scaled lipid accumulation score,[2],inactive: ≤ 0
same,scaled lipid accumulation score,[3],inactive: ≤ 0
same,scaled lipid accumulation score,[4],inactive: 0.058
same,scaled lipid accumulation score,[5],inactive: 0.62
OCc1ccc(O[C@@H]2O[C@H](CO)[C@@H](O)[C@H](O)[C@H]2O)cc1 [Gastrodin],scaled lipid accumulation score,[1],inactive: ≤ 0
same,scaled lipid accumulation score,[5],inactive: ≤ 0
O=C(NC(NC(=S)Nc1ccc(F)c([N+](=O)[O-])c1)C(Cl)(Cl)Cl)C(c1ccccc1)c1ccccc1 (stereo not drawn),scaled lipid accumulation score,[2],inactive: ≤ 0
same,scaled lipid accumulation score,[3],inactive: 0.081
same,scaled lipid accumulation score,[4],inactive: 0.01
same,scaled lipid accumulation score,[1],inactive: ≤ -0.009
same,scaled lipid accumulation score,[5],inactive: 0.019 and inactive: 0.171 and inactive: 0.352
CN(N=O)C(=O)N[C@@H](C=O)[C@@H](O)[C@H](O)[C@H](O)CO [Streptozocin],scaled lipid accumulation score,[5],inactive: ≤ -0.006
CN(N=O)C(=O)N[C@@H](C=O)[C@@H](O)[C@H](O)[C@H](O)CO [Streptozotocin],scaled lipid accumulation score,,inactive: ≤ 0
CC#CCOC(=O)c1c(C)nc2sc3c(c2c1N)CCC(O)C3 (stereo not drawn),scaled lipid accumulation score,[5],active: 1.72
CNCCC=C1c2ccccc2CCc2ccccc21 [Nortriptyline],scaled lipid accumulation score,[5],inactive: 0.72
CCN1CCN(Cc2ccc(NC(=O)c3ccc(C)c(/C=C/c4cnc5[nH]ccc5c4OC)c3)cc2C(F)(F)F)CC1,scaled lipid accumulation score,[4],active: 0.888
same,scaled lipid accumulation score,[5],active: 1.11
OC[C@H]1O[C@@H](OCCc2ccc(O)cc2)[C@H](O)[C@@H](O)[C@@H]1O [Salidroside],scaled lipid accumulation score,[1],inactive: ≤ 0
same,scaled lipid accumulation score,[5],inactive: ≤ 0
CCCCC[C@H](O)/C=C/[C@@H]1c2cc(CCCCC(=O)O)n(-c3ccccc3)c2C[C@H]1O [Piriprost (potassium salt)],scaled lipid accumulation score,library stock concentration: 1 mM,inactive: ≤ 0
C[C@H]1[C@H](NC(=O)/C(=N\OC(C)(C)C(=O)O)c2csc(N)n2)C(=O)N1S(=O)(=O)O [Aztreonam],scaled lipid accumulation score,,inactive: 0.037
same,scaled lipid accumulation score,[1],inactive: 0.024
same,scaled lipid accumulation score,library stock concentration: 4.7 mM,inactive: 0.043
same,scaled lipid accumulation score,[5],inactive: ≤ 0
Cl.C(=C(\CCN(C)C1)/C1)(/c2c(cccc2)C=C3)\c4c3cccc4 [Cyproheptadine hydrochloride],scaled lipid accumulation score,,active: 0.968
CCc1c2c(nc3ccc(OC(=O)N4CCC(N5CCCCC5)CC4)cc13)-c1cc3c(c(=O)n1C2)COC(=O)[C@]3(O)CC [Irinotecan],scaled lipid accumulation score,[1],inactive: 0.151
same,scaled lipid accumulation score,[5],inactive: 0.025
CCc1c2c(nc3ccc(OC(=O)N4CCC(N5CCCCC5)CC4)cc13)-c1cc3c(c(=O)n1C2)COC(=O)[C@]3(O)CC [Irinotecan HCl Trihydrate],scaled lipid accumulation score,[1],inactive: ≤ 0
same,scaled lipid accumulation score,[5],inactive: 0.228
CCc1c2c(nc3ccc(OC(=O)N4CCC(N5CCCCC5)CC4)cc13)-c1cc3c(c(=O)n1C2)COC(=O)[C@]3(O)CC,scaled lipid accumulation score,[5],inactive: 0.226
CCc1c2c(nc3ccc(OC(=O)N4CCC(N5CCCCC5)CC4)cc13)-c1cc3c(c(=O)n1C2)COC(=O)[C@]3(O)CC [IRINOTECAN HCl )trihydrate)],scaled lipid accumulation score,[5],active: 1.1
CCc1c2c(nc3ccc(OC(=O)N4CCC(N5CCCCC5)CC4)cc13)-c1cc3c(c(=O)n1C2)COC(=O)[C@]3(O)CC [Irinotecan hydrochloride],scaled lipid accumulation score,[5],inactive: 0.299
